In article PMC10424150 one finds binding data, which are given here for five molecules.

By UniProt entry, the sequences of proteins in these tests, tags left out.
UniProt Q8NHY2: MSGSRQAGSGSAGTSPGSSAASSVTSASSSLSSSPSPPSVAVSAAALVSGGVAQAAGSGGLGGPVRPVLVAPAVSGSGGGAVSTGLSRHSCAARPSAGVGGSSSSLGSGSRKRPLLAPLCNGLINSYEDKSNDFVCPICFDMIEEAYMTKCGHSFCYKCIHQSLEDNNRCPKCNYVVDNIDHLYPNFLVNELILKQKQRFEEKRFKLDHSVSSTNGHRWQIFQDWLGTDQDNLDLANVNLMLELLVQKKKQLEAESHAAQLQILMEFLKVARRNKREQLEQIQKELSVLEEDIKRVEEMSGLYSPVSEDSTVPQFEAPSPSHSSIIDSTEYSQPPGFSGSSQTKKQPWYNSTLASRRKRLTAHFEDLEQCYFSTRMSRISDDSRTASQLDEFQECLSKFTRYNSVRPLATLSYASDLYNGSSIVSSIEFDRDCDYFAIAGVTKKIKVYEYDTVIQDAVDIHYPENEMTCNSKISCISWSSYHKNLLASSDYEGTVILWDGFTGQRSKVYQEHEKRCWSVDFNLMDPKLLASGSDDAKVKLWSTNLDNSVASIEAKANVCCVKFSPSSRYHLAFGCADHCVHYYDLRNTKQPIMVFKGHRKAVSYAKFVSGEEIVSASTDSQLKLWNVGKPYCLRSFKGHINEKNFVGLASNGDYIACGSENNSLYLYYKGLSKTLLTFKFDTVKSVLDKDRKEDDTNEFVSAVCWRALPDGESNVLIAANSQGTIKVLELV
UniProt Q7KZI7: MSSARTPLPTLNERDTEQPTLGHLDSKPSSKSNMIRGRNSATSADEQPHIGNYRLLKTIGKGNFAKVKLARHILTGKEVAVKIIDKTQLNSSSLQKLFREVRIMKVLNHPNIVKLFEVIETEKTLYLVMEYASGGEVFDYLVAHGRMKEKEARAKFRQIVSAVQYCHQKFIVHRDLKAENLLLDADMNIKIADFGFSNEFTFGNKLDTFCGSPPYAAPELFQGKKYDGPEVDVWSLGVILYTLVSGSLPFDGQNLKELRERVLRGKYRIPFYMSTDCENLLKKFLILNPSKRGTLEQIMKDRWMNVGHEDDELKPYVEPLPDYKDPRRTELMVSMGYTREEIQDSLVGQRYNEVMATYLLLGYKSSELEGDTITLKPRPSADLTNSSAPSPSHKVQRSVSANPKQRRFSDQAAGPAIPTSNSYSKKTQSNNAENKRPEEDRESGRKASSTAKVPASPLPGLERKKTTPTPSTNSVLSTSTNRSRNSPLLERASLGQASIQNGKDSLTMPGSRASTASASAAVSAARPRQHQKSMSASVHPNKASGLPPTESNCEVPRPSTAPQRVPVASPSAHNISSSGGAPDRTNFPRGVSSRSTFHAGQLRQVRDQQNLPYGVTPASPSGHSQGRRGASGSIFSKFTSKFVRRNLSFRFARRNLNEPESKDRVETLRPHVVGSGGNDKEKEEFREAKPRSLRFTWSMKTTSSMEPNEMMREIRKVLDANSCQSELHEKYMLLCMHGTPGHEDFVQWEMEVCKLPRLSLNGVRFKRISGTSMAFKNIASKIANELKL
UniProt Q13164: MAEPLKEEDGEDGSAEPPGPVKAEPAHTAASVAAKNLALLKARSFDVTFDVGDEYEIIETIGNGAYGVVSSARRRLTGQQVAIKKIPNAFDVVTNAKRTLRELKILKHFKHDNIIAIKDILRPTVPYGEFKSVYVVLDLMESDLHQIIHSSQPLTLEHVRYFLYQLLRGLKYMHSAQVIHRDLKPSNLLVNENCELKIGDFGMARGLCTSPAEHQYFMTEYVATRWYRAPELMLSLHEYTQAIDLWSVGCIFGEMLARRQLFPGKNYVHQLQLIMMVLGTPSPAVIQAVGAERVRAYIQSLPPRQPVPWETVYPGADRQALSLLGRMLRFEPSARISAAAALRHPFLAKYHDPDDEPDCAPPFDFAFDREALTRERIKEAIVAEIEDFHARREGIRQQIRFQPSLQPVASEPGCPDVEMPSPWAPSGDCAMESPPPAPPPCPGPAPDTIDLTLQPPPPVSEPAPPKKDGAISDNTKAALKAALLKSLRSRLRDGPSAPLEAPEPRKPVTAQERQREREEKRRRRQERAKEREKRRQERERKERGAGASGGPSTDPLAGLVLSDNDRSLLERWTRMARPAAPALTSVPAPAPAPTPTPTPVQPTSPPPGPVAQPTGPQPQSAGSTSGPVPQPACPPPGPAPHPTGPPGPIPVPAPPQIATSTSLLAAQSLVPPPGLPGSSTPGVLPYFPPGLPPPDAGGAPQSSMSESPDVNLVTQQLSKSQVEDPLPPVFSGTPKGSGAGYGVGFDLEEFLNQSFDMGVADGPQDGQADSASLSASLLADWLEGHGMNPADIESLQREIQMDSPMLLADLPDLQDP

Changes are numbered by the printed parent chain. Like-named read-outs stand apart in the source and are kept apart here. Results are given in words; binding and its absence hold for the method and conditions named. Binding seen in cells or lysates may run through a third protein. Some results given as binding are weak or reduced against the parent protein; the word gives no strength. For some of these results: Sequences can lack the tags named with a protein.

Holding throughout (experiment): co-IP; FLAG-fusion baits overexpressed in HEK293; sonicated lysates (20 mM Tris-HCl pH 7.5, 20 mM NaCl, 0.5% IGEPAL CA-630, 1 mM DTT, 1 mM EDTA, 0.1 mM MG-132) rotated with anti-FLAG M2 magnetic beads for 3 hours, washed 3 times; endogenous partners detected by Western blot
In assay [1] the target is T1, FLAG-TRAF7 N520S, meningioma mutant of full-length human TRAF7 (human) (UniProt Q6Q0C0).
T1 sequence: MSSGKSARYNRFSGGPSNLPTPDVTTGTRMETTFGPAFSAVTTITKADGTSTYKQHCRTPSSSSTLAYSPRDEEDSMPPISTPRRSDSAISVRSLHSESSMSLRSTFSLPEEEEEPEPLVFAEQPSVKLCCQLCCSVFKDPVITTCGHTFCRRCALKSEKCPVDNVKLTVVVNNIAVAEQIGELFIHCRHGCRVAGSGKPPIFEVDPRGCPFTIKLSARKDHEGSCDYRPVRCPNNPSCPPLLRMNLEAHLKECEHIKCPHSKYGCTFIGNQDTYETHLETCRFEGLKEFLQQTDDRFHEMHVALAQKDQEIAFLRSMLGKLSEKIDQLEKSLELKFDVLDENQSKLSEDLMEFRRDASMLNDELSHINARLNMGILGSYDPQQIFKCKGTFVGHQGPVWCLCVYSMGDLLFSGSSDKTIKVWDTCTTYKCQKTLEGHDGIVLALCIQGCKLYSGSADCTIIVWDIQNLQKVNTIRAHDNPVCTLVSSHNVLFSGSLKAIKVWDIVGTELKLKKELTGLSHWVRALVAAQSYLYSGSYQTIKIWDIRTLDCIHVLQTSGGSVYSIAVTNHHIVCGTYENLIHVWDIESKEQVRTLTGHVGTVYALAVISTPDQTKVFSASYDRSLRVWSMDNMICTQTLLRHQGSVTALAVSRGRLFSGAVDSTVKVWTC

For assay [2], the target named is T2, FLAG-TRAF7, full-length human TRAF7 (human) (UniProt Q6Q0C0).
T2 sequence: T1 sequence with S520N

Assay [3] deals with FLAG-fusion protein of bacterial alkaline phosphatase (BAP) [phosphatase: P00634].
In assay [4] the target is FLAG-COP1, human E3 ubiquitin ligase constitutive photomorphogenic 1 (human) (UniProt Q8NHY2).
Assay [5] has as its target T1, FLAG-TRAF7 N520S, meningioma mutant of full-length human TRAF7 (human). This is another data set of the same source.
Assay [6] addresses T2, FLAG-TRAF7, full-length human TRAF7 (human). The source holds these as a separate data set.
In assay [7] the target is T3, FLAG-TRAF7(375-670), C-terminal WD40 domain (human) (UniProt Q6Q0C0).
T3 sequence: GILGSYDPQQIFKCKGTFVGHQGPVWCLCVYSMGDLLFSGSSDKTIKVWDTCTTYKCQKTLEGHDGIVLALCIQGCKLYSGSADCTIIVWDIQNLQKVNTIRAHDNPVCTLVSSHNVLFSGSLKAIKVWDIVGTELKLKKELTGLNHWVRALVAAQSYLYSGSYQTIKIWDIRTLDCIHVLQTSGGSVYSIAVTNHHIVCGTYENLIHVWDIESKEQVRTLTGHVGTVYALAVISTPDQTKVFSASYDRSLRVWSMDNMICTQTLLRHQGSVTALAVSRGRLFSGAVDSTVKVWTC

For assay [8], the target named is T4, FLAG-TRAF7(121-292) (human) (UniProt Q6Q0C0).
T4 sequence: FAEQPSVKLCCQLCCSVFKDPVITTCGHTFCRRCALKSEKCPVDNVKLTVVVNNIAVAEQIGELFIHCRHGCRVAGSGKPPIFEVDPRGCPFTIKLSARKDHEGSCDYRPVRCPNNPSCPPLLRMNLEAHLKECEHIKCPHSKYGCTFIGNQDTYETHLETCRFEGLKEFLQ

Consider “serine/threonine-protein kinase MARK2, endogenous (from UniProt Q7KZI7 1-788)”, for which the binding entry in assay [1] and in assay [2] was “no binding” in each case.
“extracellular signal-regulated kinase 5 (ERK5), endogenous (from UniProt Q13164 1-816)”: the binding result in assay [1] and in assay [2] was “no binding” each time.

B1: MEKK2, endogenous (protein, UniProt Q9Y2U5 1-619)
chain: MDDQQALNSIMQDLAVLHKASRPALSLQETRKAKSSSPKKQNDVRVKFEHRGEKRILQFPRPVKLEDLRSKAKIAFGQSMDLHYTNNELVIPLTTQDDLDKAVELLDRSIHMKSLKILLVINGSTQATNLEPLPSLEDLDNTVFGAERKKRLSIIGPTSRDRSSPPPGYIPDELHQVARNGSFTSINSEGEFIPESMDQMLDPLSLSSPENSGSGSCPSLDSPLDGESYPKSRMPRAQSYPDNHQEFSDYDNPIFEKFGKGGTYPRRYHVSYHHQEYNDGRKTFPRARRTQGTSLRSPVSFSPTDHSLSTSSGSSIFTPEYDDSRIRRRGSDIDNPTLTVMDISPPSRSPRAPTNWRLGKLLGQGAFGRVYLCYDVDTGRELAVKQVQFDPDSPETSKEVNALECEIQLLKNLLHERIVQYYGCLRDPQEKTLSIFMEYMPGGSIKDQLKAYGALTENVTRKYTRQILEGVHYLHSNMIVHRDIKGANILRDSTGNVKLGDFGASKRLQTICLSGTGMKSVTGTPYWMSPEVISGEGYGRKADIWSVACTVVEMLTEKPPWAEFEAMAAIFKIATQPTNPKLPPHVSDYTRDFLKRIFVEAKLRPSADELLRHMFVHYH
Turning to B1, the binding entry in assay [3] is listed as “no binding”; in assay [4], “no binding”; in assay [5], “binds”; in assay [6] it was “binds”.

B2: dual specificity mitogen-activated protein kinase kinase 5 (MEK5), endogenous (protein, UniProt Q13163 1-448)
chain: MLWLALGPFPAMENQVLVIRIKIPNSGAVDWTVHSGPQLLFRDVLDVIGQVLPEATTTAFEYEDEDGDRITVRSDEEMKAMLSYYYSTVMEQQVNGQLIEPLQIFPRACKPPGERNIHGLKVNTRAGPSQHSSPAVSDSLPSNSLKKSSAELKKILANGQMNEQDIRYRDTLGHGNGGTVYKAYHVPSGKILAVKVILLDITLELQKQIMSELEILYKCDSSYIIGFYGAFFVENRISICTEFMDGGSLDVYRKMPEHVLGRIAVAVVKGLTYLWSLKILHRDVKPSNMLVNTRGQVKLCDFGVSTQLVNSIAKTYVGTNAYMAPERISGEQYGIHSDVWSLGISFMELALGRFPYPQIQKNQGSLMPLQLLQCIVDEDSPVLPVGEFSEPFVHFITQCMRKQPKERPAPEELMGHPFIVQFNDGNAAVVSMWVCRALEERRSQQGPP
B2: the binding result in assay [3] is on record as “no binding”; in assay [7], “binds”; in assay [4] it was “no binding”; in assay [5] it was “binds”; in assay [8], “binds”; in assay [6], “binds”.

B3: mitogen-activated protein kinase kinase kinase 3 (MEKK3), endogenous (protein, UniProt Q99759 1-626)
chain: MDEQEALNSIMNDLVALQMNRRHRMPGYETMKNKDTGHSNRQSDVRIKFEHNGERRIIAFSRPVKYEDVEHKVTTVFGQPLDLHYMNNELSILLKNQDDLDKAIDILDRSSSMKSLRILLLSQDRNHNSSSPHSGVSRQVRIKASQSAGDINTIYQPPEPRSRHLSVSSQNPGRSSPPPGYVPERQQHIARQGSYTSINSEGEFIPETSEQCMLDPLSSAENSLSGSCQSLDRSADSPSFRKSRMSRAQSFPDNRQEYSDRETQLYDKGVKGGTYPRRYHVSVHHKDYSDGRRTFPRIRRHQGNLFTLVPSSRSLSTNGENMGLAVQYLDPRGRLRSADSENALSVQERNVPTKSPSAPINWRRGKLLGQGAFGRVYLCYDVDTGRELASKQVQFDPDSPETSKEVSALECEIQLLKNLQHERIVQYYGCLRDRAEKTLTIFMEYMPGGSVKDQLKAYGALTESVTRKYTRQILEGMSYLHSNMIVHRDIKGANILRDSAGNVKLGDFGASKRLQTICMSGTGMRSVTGTPYWMSPEVISGEGYGRKADVWSLGCTVVEMLTEKPPWAEYEAMAAIFKIATQPTNPQLPSHISEHGRDFLRRIFVEARQRPSAEELLTHHFAQLMY
For the molecule B3, the binding entry in assay [3] is “no binding”; in assay [7], “binds”; in assay [4], “no binding”; in assay [5], “binds”; in assay [6] it was “binds”.
